From PubChem BioAssay AID624296 (National Center for Advancing Translational Sciences (NCATS), 2012)
About 9,900 (2.8%) of roughly 350,000 compounds were called active. The shares of active, inactive and inconclusive entries below differ from those in the screen. Calls come from the whole dose curve; as a rule, active = well fitted activation curve with a large enough effect; inconclusive = small, poorly fitted or top-dose-only effect; inactive = no such curve, though single readings can be large or run the other way. No potency is given beside an inconclusive call; the fits are too rough.

assay: A quantitative high throughput screen for small molecules that induce DNA re-replication in MCF 10a normal breast cells.; note: nearly all actives have a fitted effect of over 50% in size; for activity, positive = re-replication: % of control where 0% means no effect; details: MCF 10A DNA re-replication, Hoechst nuclear intensity, 48 h; activity, positive = re-replication: at 46.1 µM (top of the series)
Potency is the fitted concentration of half-maximal effect; tags give direction and shape of the fitted curve.

SMILES | Potency | activity, positive = re-replication
COc1ccc(NC(=O)CCSc2ccc(C)cc2)cc1S(=O)(=O)Nc1ccccc1Cl | inconclusive [activator, partial curve, poor fit] | 
O=C(CCCSCCCC(=O)NN=Cc1ccccc1)NN=Cc1ccccc1 |  | inactive: 12.7%
Cc1cc2nn(-c3ccccc3)nc2cc1NC(=O)c1cccs1 | inconclusive [activator, single point] | 
CC1(C(=O)N/N=C/c2c(F)c(F)c(F)c(F)c2F)CC1(Cl)Cl (configuration not stated) | inconclusive [activator, single point] | 
CCN(CC)CCCNC(=S)N1CCN(c2nc3ccccc3n2CC)CC1 | inconclusive [activator, single point] | 
COc1ccc(CC(=O)N/N=C(\C)c2cccnc2)cc1 |  | inactive: 6.44%
COc1cc2c3c(c1)C(C)CC(C)(C)N3C(=O)C2=O (configuration not stated) | inconclusive [activator, single point] | 
Cc1ncc([N+](=O)[O-])n1CCOC(=O)c1ccc(Br)cc1 | inconclusive [activator, single point] | 
C/C(=N\NC(=S)NC(C)C)c1ccc(Cl)c([N+](=O)[O-])c1 | inconclusive [activator, single point] | 
Cc1nc(N2CCN(S(=O)(=O)c3ccccc3C#N)CC2)c2c(-c3cccs3)csc2n1 | inconclusive [activator, single point] | 
CC(c1ccccc1C(=O)O)c1cc(F)cc2ccccc12 (configuration not stated) | inconclusive [activator, single point] | 
c1ccc(CN2CCN(CCN3CCn4c3nc3ccccc34)CC2)cc1 | inconclusive [activator, partial curve, poor fit] | 
COc1ccc(N/C=C2\C(=O)CCc3c2oc2cc(Cl)c(O)c(Cl)c32)cc1 | inconclusive [activator, partial curve, poor fit] | 
O=C(CCN1CCc2ccccc2C1)Nc1ccc(F)c(F)c1 | inconclusive [activator, single point] | 
Nc1c(Cl)cc(-c2csc(N3CCCC3c3nc4cc(Cl)c(Cl)cc4n3CCCO)n2)cc1Cl (configuration not stated) | inconclusive [activator, single point] | 
O=C(Nc1ccc(Cl)cn1)c1ccc(-c2ccc(Cl)c(Cl)c2)o1 | active: 18.4 µM | 
O=C(CCNC(=O)C1CCN(S(=O)(=O)c2ccccc2)CC1)NCc1ccc(Cl)cc1 | inconclusive [activator, single point] | 
CCNc1nc(OC)nc(Oc2ccc(=O)n(-c3ccccc3)n2)n1 |  | inactive: 2.06%
CC(=O)NCCn1c(SCc2ccccc2F)nc2ccccc2c1=O | inconclusive [activator, partial curve, poor fit] | 
COC(=O)C1CCN(C(=O)[C@H](C)NC(=O)C2CC(=O)N(c3ccc(F)cc3)C2)CC1 (some centres not stated) |  | inactive: -2.15%
COCCn1c(-c2cc(OC)c(OC)c(OC)c2)nc2oc3ccccc3c(=O)c2c1=O | inconclusive [activator, single point] | 

SMILES | Potency | activity, positive = re-replication
COc1ccccc1N1CCN(CC(O)COc2ccc3c(c2)CCC3)CC1 (configuration not stated) | inconclusive [activator, single point] | 
Cc1ccc(C(=O)NNC(=O)C2CCN(c3ncccn3)CC2)cc1 |  | inactive: 4.28%
O=C(c1ccc(Cl)cc1)c1coc2ccc(O)cc12 | inconclusive [activator, partial curve, poor fit] | 
CC(CCc1ccccc1)NC(=O)CN1CCSc2ccccc21 (configuration not stated) |  | inactive: 4.84%
COc1ccc(-c2nnn(CC(=O)N3CCN(c4ccc(F)cc4)CC3)n2)cc1 |  | inactive: -0.325%
Cc1ccc(S(=O)(=O)NCC(=O)OCC(=O)NCc2ccc(F)cc2)cc1 |  | inactive: -11.7%
CC(OC(=O)CCN=C1NS(=O)(=O)c2ccccc21)C(=O)Nc1ccc(F)c(F)c1F (configuration not stated) |  | inactive: -4.76%
CC(C)C(NS(=O)(=O)c1cccs1)C(=O)NCc1ccccc1Cl (configuration not stated) | inconclusive [activator, full curve, poor fit] | 
COc1ccc(NC(=O)c2c(-c3c(Cl)cccc3Cl)noc2C)cn1 | inconclusive [activator, single point] | 
O=C(c1ccc(Cl)cc1)c1cc([N+](=O)[O-])ccc1N1CCOCC1 | inconclusive [activator, partial curve, poor fit] | 
Cc1ccc(S(=O)(=O)N/N=C/c2c(F)cccc2Cl)cc1 | inconclusive [activator, partial curve, poor fit] | 
O=c1ccc(-c2nc3ccccc3n2Cc2ccccc2Cl)c[nH]1 | inconclusive [activator, partial curve, poor fit] | 
O=S(=O)(c1ccccc1)c1cnn(-c2ccccc2)c1-c1ccc(Cl)cc1 |  | inactive: 6.69%
Cc1ccc(C)c(NC(=O)C(Sc2nc3ccccc3c(=O)n2CC(C)C)c2ccccc2)c1 (configuration not stated) | inconclusive [activator, full curve, poor fit] | 
CCn1c(=O)cc(SCC(=O)Nc2cccc(SC)c2)c2ccccc21 | inconclusive [activator, partial curve, poor fit] | 
Cc1cccc(N2CCN(C(=O)COc3ccc4c(c3)CCC4)CC2)c1C | inconclusive [activator, single point] | 
N#CC1=C(N)Oc2n[nH]c(-c3cccs3)c2C1C1CCCCC1 (configuration not stated) | inconclusive [activator, partial curve, poor fit] | 
COc1ccc(C2C(C(C)=O)=C(C)N=c3s/c(=C\c4cc(C)n(C)c4C)c(=O)n32)c(OC)c1 (configuration not stated) | inconclusive [activator, partial curve] | 
CCC(C)(C)n1nnnc1C(c1cc2ccc(OC)cc2[nH]c1=O)N1CCc2ccccc2C1 (configuration not stated) |  | inactive: 15.5%
O=c1c2ccc(Cl)cc2nc2n1CC/C2=C\c1cccc(O)c1 | inconclusive [activator, single point] | 
COc1ccc(-c2cccc(NC(=O)c3cccs3)c2)nn1 |  | inactive: 13.2%
